According to PubChem BioAssay AID504832 (National Center for Advancing Translational Sciences (NCATS), 2011):
About 18,000 (5.8%) of roughly 310,000 compounds were called active. The inconclusive results got no clear call from the source; some entries with a clear call stand among them for comparison. The call rests on the fitted dose curve; in most records, active means well fitted inhibition curve with a large enough effect; inconclusive means small, poorly fitted or top-dose-only effect, or another doubt; inactive means no such curve, though single readings can be large or run the other way. No potency is given beside an inconclusive call; the fits are too rough.

assay: Primary qHTS for delayed death inhibitors of the malarial parasite plastid, 48 hour incubation; details: P. falciparum luciferase growth in erythrocytes; series mostly up to 28.7 µM; activity change, negative = inhibition: at the top concentration
Procedure, shortened: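 Firefly luciferase activity from engineered P. falciparum reports growth; inhibitors lower the luminescent signal. Cultures contained 2% hematocrit erythrocytes at 0.1% final parasitemia.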
On the % scale 0 is the no-effect control and ±100 the full control effect; potency means the concentration at half of the fitted maximal effect; tags describe the fitted curve by direction and shape.

SMILES | activity change, negative = inhibition | Potency
COc1ccc(OCCOC(=O)CCS(=O)(=O)c2ccc(C)cc2)cc1 | inactive: -15.5% | –
CCCN(CCC)S(=O)(=O)c1ccc(C(=O)N2CCN(C)CC2)cc1 | inactive: -17.1% | –
Cc1ccc(NC(=O)C2(c3ccc([N+](=O)[O-])cc3)CCCC2)cc1 | – | active: 2.62 µM
O=S(=O)(NC1CCCCC1N1CCN(c2ccccc2F)CC1)c1ccccc1 (centres undefined) | – | inconclusive [inhibitor, single point]
COc1ccc(C(C(=O)NCC2CCCO2)N(C(=O)CNC(=O)c2cccs2)c2ccc(C)cc2)cc1OC (centres undefined) | – | active: 10.4 µM
O=C(NCCCNC(=O)c1cc(Cl)ccc1Cl)c1ccccn1 | inactive: -33.4% | –
CC(C)(C)NC(=O)C(c1ccncc1)N(Cc1ccco1)C(=O)c1ccc(-c2ccccc2)[nH]1 (centres undefined) | – | inconclusive [inhibitor, single point]
CCCC1(C(=O)OCC)NC(c2ccc(OC)cc2OC)C2C(=O)N(c3ccc4c(c3)OCCO4)C(=O)C21 (centres undefined) | – | inconclusive [inhibitor, single point]
C/C(=N\NC(=O)NC1CCCCC1)c1ccc(OC(F)F)cc1OC(F)F | – | inconclusive [inhibitor, single point]
O=C(NC1CCCCCC1)c1ccc(CS(=O)Cc2ccccc2Cl)o1 (centres undefined) | – | inconclusive [inhibitor, single point]
COc1ccc(OC)c(Nc2ncnc3ccc(Br)cc23)c1 | – | inconclusive [inhibitor, single point]
O=C(COc1ccc(S(=O)(=O)NC2CCCC2)cc1)N1CCCCCC1 | – | inconclusive [inhibitor, partial curve]
O=S(=O)(c1ccc2c(c1)C(O)c1ccccc1CC2)C(F)(F)F (centres undefined) | – | active: 7.38 µM
CCC1OC23CCCCC2C(C#N)(C(=N)O3)C1(C#N)C#N (centres undefined) | inactive: -16% | –
COc1ccc(N/C=C2/Sc3ccccc3NC2=O)cc1 | inactive: 240% | –
C=CCN(Cc1cccs1)C(=O)CN1CCN(S(=O)(=O)c2ccc3c(c2)OCCCO3)CC1 | – | inconclusive [inhibitor, single point]
COC(=O)c1cn(NC(=O)c2ccc(OC)c(OC)c2)c(=O)c2ccccc12 | – | inconclusive [inhibitor, partial curve, poor fit]
Cn1nc(C(=O)Nc2ccc(S(=O)(=O)NCc3ccco3)cc2)c2ccccc2c1=O | – | inconclusive [inhibitor, partial curve]
COc1ccccc1NC(=O)c1sc2ncn(Cc3ccccc3C)c(=O)c2c1C | – | inconclusive [inhibitor, full curve]
CCc1ccc(C(=O)NNC(=O)CCN2CCN(Cc3ccccc3)CC2)cc1 | – | active: 2.33 µM
O=C1/C(=C/c2ccc(O)c(O)c2)SC(=S)N1Nc1ccccc1 | – | inconclusive [inhibitor, single point]
FC(F)(F)c1cc(CCN2C(=S)NC[C@@H]2Cc2ccccc2)cc(C(F)(F)F)c1 | – | inconclusive [inhibitor, partial curve, poor fit]
CCCCOc1ccc(C(=O)N/C(=C\c2cccc([N+](=O)[O-])c2)C(=O)OCCC)cc1 | – | inconclusive [inhibitor, partial curve, poor fit]

SMILES | activity change, negative = inhibition | Potency
CC1=C([N+](=O)[O-])C(c2ccccc2Cl)NC(=O)N1C (centres undefined) | – | inconclusive [inhibitor, partial curve]
CCNc1nc(NCC)nc(N/N=C/c2ccc(N(C)C)cc2)n1 | – | active: 13.1 µM
COC(=O)/C(=C/c1cn(C)c2ccccc12)[N+](=O)[O-] | inactive: -5.04% | –
CC1CN(C/C(=N\O)C23CC4CC(CC(C4)C2)C3)CC(C)O1 (centres undefined) | inactive: -3.43% | –
COc1cc(N=Nc2ccccc2C(=O)O)ccc1O | – | inconclusive [inhibitor, partial curve, poor fit]
O=C(NCCN1CCOCC1)c1ccc(/C=C2\Sc3ccccc3N(Cc3ccc(F)cc3)C2=O)cc1 | – | active: 11.7 µM
Cc1ccc(S(=O)(=O)CCSc2nc(C)cc(C)c2C#N)cc1 | – | inconclusive [inhibitor, partial curve]
COc1ccccc1N1CCN(C(=O)c2oc3cc(C)cc(C)c3c2C)CC1 | – | inconclusive [inhibitor, partial curve, poor fit]
Cc1cc(/C=N/Nc2ccc([N+](=O)[O-])cn2)c(C)n1-c1ccccc1 | – | inconclusive [inhibitor, single point]
CC(=O)N/C(=C/c1ccc2c(c1)OCO2)C(=O)NCc1ccccc1 | inactive: 12.7% | –
O=P(Oc1ccccc1)(Oc1ccccc1)N1CCN(c2ccc(F)cc2)CC1 | – | inconclusive [inhibitor, single point]
COC(=O)c1cc(Oc2ccc(C(=O)OC)cc2N)cc(C(=O)OC)c1 | – | inconclusive [inhibitor, single point]
CC(C)(C)n1nc(-c2ccc(F)cc2)c2c(N)ncnc21 | – | active: 11.7 µM
COc1ccccc1N1CCN(C(=S)Nc2ccc3nc(N4CCOCC4)cc(C)c3c2)CC1 | – | inconclusive [inhibitor, single point]
CC(=O)Nc1cc(C(=O)OC(C(=O)c2ccccc2)c2ccccc2)ccc1C (centres undefined) | – | inconclusive [inhibitor, partial curve, poor fit]
COc1cc(CNCCO)cc(Br)c1OCc1ccccc1Cl | – | inconclusive [inhibitor, single point]
CC[N+](C)(CC)CCOC(=O)C(O)(c1ccccc1)c1ccccc1 | inactive: -5.1% | –
O=C(NCCNS(=O)(=O)c1ccccc1)N1CCOCC1 | inactive: 12.7% | –
O=C(c1ccc(OC2CCN(Cc3ccc(C(F)(F)F)cc3)CC2)cc1)N1CCCCC1 | – | inconclusive [inhibitor, single point]
CCOC(=O)N1CCc2c(sc(NC(=O)C3=COCCO3)c2C(N)=O)C1 | – | inconclusive [inhibitor, single point]
COc1cc(C(C)=O)ccc1Oc1cc(NN2CCCCC2)c([N+](=O)[O-])cc1[N+](=O)[O-] | – | inconclusive [inhibitor, full curve, poor fit]
NC(N)=N/N=C/c1ccc(Cl)c(Cl)c1 | – | inconclusive [inhibitor, full curve]
Cn1cccc1Cc1nnc(SCC(=O)Nc2ccccc2)n1-c1ccc(F)cc1 | – | inconclusive [inhibitor, single point]

SMILES | activity change, negative = inhibition | Potency
COc1cccc(C(=O)CSc2nnnn2C)c1 | inactive: 3.83% | –
CCCN(CCC)CCNC(=O)c1cc2c(-c3ccccc3F)nn(C)c2s1 | – | active: 3.29 µM
Cc1oc(-c2cccc(F)c2)nc1CN(Cc1ccccc1)C[C@@H]1CCC(=O)N1 | – | inconclusive [inhibitor, single point]
Cc1cc(C)n(-c2nc3ccccc3nc2N2CCN(C(=O)c3ccccc3)CC2)n1 | – | inconclusive [inhibitor, single point]
CSc1nc2sc3c(c2c(=O)n1C1CCCCC1)CCN(C)C3 | – | inconclusive [inhibitor, partial curve]
COc1ccc(COC(=O)Nc2cn(C)nc2C(F)(F)F)cc1 | inactive: 17.1% | –
CN(Cc1ccccc1)CC(O)COc1ccc(CNCc2cc3ccccc3s2)cc1 (centres undefined) | – | inconclusive [inhibitor, partial curve, poor fit]
COc1ccc(/C=C2\SC(=S)N(CCCC(=O)N3CCN(C)CC3)C2=O)cc1 | – | inconclusive [inhibitor, single point]
CCOC(=O)CCC(NC(=O)CCCCCCCCC(=O)NC(CCC(=O)OCC)C(=O)OCC)C(=O)OCC (centres undefined) | – | inconclusive [inhibitor, partial curve]
COc1ccc(S(=O)(=O)N2CCC(C(=O)Nc3ccccc3N3CCCCC3)CC2)cc1OC | inactive: 0% | –
CCN(CC)c1nc2ccccc2n(Cc2cccc(OC)c2)c1=O | – | inconclusive [inhibitor, full curve]
O=c1[nH]c(Nc2ccccc2)cc2ccccc12 | – | inconclusive [inhibitor, partial curve]
CC(C)CN(CC(C)C)C(=O)COn1nnc2ccc(S(=O)(=O)N3CCOCC3)cc21 | inactive: -10.8% | –
Cc1cc(NC(=O)COC(=O)c2cccc(OCc3ccccc3)c2)no1 | inactive: 40.5% | –
CCCC(=O)NNC(=O)c1c(O)c2ccccc2[nH]c1=O | inactive: -19.1% | –
CCOc1ccccc1NC(=O)CC1Nc2ccccc2NC1=O (centres undefined) | – | active: 2.33 µM
CCC(C(=O)Nc1cccc(OC)c1)n1nc(C)c2c(C)n(-c3ccccc3)nc2c1=O (centres undefined) | – | inconclusive [inhibitor, partial curve, poor fit]
COc1cccc(C2C(C(=O)c3ccc(C)o3)=C(O)C(=O)N2CCN2CCOCC2)c1 (centres undefined) | – | inconclusive [inhibitor, partial curve, poor fit]
COc1ccc(OC)c(NC(=O)CSc2nnc(C3CCCCC3)n2-c2ccccc2)c1 | – | inconclusive [inhibitor, single point]
CCOC(=O)/C(=N\Nc1ccc(Br)cc1)N1CC(C)OC(C)C1 (centres undefined) | – | inconclusive [inhibitor, single point]
CC1CC(C)CN(C(=O)CCNS(=O)(=O)c2ccc3c(c2)CCC(=O)N3)C1 (centres undefined) | inactive: 5.9% | –
Cc1ccc(Nc2nc(C(=O)NCc3ccco3)cs2)cc1 | – | inconclusive [inhibitor, partial curve]
Cn1c(=O)c2c(nc(CN3CCCCC3)n2Cc2c(F)cccc2Cl)n(C)c1=O | – | inconclusive [inhibitor, full curve]
